{"source": "PubChem BioAssay AID2451", "about": "(National Center for Advancing Translational Sciences (NCATS), 2010)", "note": "Out of some 290,000 compounds screened, about 2,100 (0.72%) were called active. Inconclusive means that the source gave no clear call. Such entries were picked first, then a sample of the others. Calls come from the whole dose curve; as a rule, active = well fitted inhibition curve with a large enough effect; inconclusive = small, poorly fitted or top-dose-only effect, or effect the other way; inactive = flat fitted curve, though single readings scatter. Where the call is inconclusive, the potency comes from a doubtful curve fit. Potency is the fitted concentration of half-maximal effect; tags give direction and shape of the fitted curve."}
{"molecular_target": "Fructose-bisphosphate aldolase (Giardia intestinalis (strain ATCC 50803 / WB clone C6)) (UniProt A8B2U2)", "sequence (A8B2U2 whole entry, looked up)": "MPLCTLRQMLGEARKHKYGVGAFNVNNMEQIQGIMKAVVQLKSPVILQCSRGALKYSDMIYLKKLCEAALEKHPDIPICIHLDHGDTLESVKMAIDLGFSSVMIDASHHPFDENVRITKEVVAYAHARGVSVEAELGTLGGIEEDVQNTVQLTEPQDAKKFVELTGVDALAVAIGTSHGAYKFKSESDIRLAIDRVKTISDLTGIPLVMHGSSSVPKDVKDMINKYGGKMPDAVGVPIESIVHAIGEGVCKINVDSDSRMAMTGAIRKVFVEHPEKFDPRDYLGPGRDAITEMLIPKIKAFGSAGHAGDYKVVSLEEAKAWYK", "experiment": "qHTS Assay for Inhibitors of Fructose-1,6-bisphosphate Aldolase from Giardia Lamblia; note: nearly all actives have a fitted effect of over 55% in size", "settings": "purified Giardia FBPA; series mostly up to 59.6 µM", "procedure,_shortened": "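40 nM FBPA preincubated 10 min at RT with compound (up to 57.5 uM final), then substrate plus GAPDH/TPI/NAD/arsenate coupling and diaphorase/resazurin added. Fluorescence read after 20 min at RT, 525/598 nm.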"}
{"compound": "N/C(=N\\NS(=O)(=O)c1ccccc1C(F)(F)F)c1ccccn1", "Potency": "active: 17.7 µM"}
{"compound": "Nc1ccc2c(c1)CC(=O)c1ccccc1S2", "Potency": "inconclusive: 9.98 µM [inhibitor, partial curve]"}
{"compound": "CCC(=S)/C=C1\\Sc2ccccc2N1CCCS(=O)(=O)O", "Potency": "inconclusive: 19.9 µM [inhibitor, single point]"}
{"compound": "O=C(CN1CCCC1)N1CCCc2ccccc21", "Potency": "inconclusive: 19.9 µM [inhibitor, partial curve]"}
{"compound": "COc1ccc(S(=O)(=O)N2CCN(c3ncccn3)CC2)cc1[N+](=O)[O-]", "Potency": "inconclusive: 35.5 µM [activator, partial curve]"}
{"compound": "COc1ccc(/C=N/NC(=O)c2ccc(CN3C(=O)c4cccc5cccc3c45)cc2)cc1O", "Potency": "inconclusive: 15.8 µM [inhibitor, single point]"}
{"compound": "O=C(N/N=C/c1ccccn1)c1cc([N+](=O)[O-])cc([N+](=O)[O-])c1", "Potency": "active: 9.98 µM"}
{"compound": "CCCCC(=O)N/N=C/c1ccc(Sc2cccc3cccnc23)o1", "Potency": "inconclusive: 17.7 µM [inhibitor, partial curve]"}
{"compound": "COc1cccc(/C=N/n2c(C)nc3ccccc3c2=O)c1O", "Potency": "inconclusive: 15.8 µM [inhibitor, single point]"}
{"compound": "COc1ccccc1CN1CCCC(C(=O)N(C)Cc2ccccc2)C1", "note": "(centres undefined)", "Potency": "inconclusive: 17.8 µM [inhibitor, partial curve]"}
{"compound": "Cc1ccc(C(=O)Nc2nnc(-c3ccco3)o2)cc1", "Potency": "inactive"}
{"compound": "C/C(=N\\Nc1nc(N)cc(Cl)n1)c1cccc(N)c1", "Potency": "inconclusive: 6.29 µM [inhibitor, partial curve]"}
{"compound": "CCNC(=S)NNc1ccccc1", "Potency": "active: 11.2 µM"}
{"compound": "Cc1cc(NC(=O)CCN2CC(C)OC(C)C2)ccc1Br", "note": "(centres undefined)", "Potency": "inconclusive: 12.6 µM [inhibitor, partial curve]"}
{"compound": "CCCN1C(=O)/C(=C/c2ccc(N3CCOCC3)cc2)NC1=S", "Potency": "inactive"}
{"compound": "c1ccc(-c2c[n+]3c(n2-c2ccccc2)CCC3)cc1", "Potency": "inactive"}
{"compound": "CO/N=C(\\C(=O)N[C@@H]1C(=O)N2C(C(=O)O)=C(COC(C)=O)CS[C@@H]12)c1csc(N)n1", "Potency": "inconclusive: 15.8 µM [inhibitor, partial curve]"}
{"compound": "O=C(O)c1cccc(CN2C(=O)S/C(=C/c3ccccc3[N+](=O)[O-])C2=O)c1", "Potency": "inconclusive: 17.7 µM [activator, single point]"}
{"compound": "O=[N+]([O-])c1cccc(-c2cc(-c3cc(Br)ccc3O)[nH]n2)c1", "Potency": "inactive"}
{"compound": "Cc1cc(Nc2ccccc2)n(-c2nc3ccccc3[nH]2)n1", "Potency": "inconclusive: 17.7 µM [inhibitor, single point]"}
{"compound": "COc1cc(C2CC(=O)Oc3c(C(CCN4CCCC(C)C4)c4ccc(N(C)C)cc4)c(OC)cc(OC)c32)cc(OC)c1OC", "note": "(centres undefined)", "Potency": "inactive"}
{"compound": "CCN1C(=O)c2cccc3c(NC(=O)c4ccccc4)ccc1c23", "Potency": "inconclusive: 28.1 µM [inhibitor, partial curve]"}
{"compound": "CCCCn1c(NS(=O)(=O)c2ccccc2)c(C(=O)OCC)c2nc3ccccc3nc21", "Potency": "active: 0.446 µM"}
{"compound": "CC(C)(C)c1ccc(OCC(O)CN2CCN(C(=O)c3ccccc3)CC2)cc1", "note": "(centres undefined)", "Potency": "active: 14.1 µM"}
{"compound": "Cc1nnc(NC(=O)CSc2n[nH]c(-c3ccccc3C)n2)s1", "Potency": "inconclusive: 8.91 µM [inhibitor, partial curve]"}
{"compound": "CCc1ccccc1NC(=O)c1ccoc1C", "Potency": "inactive"}
{"compound": "COCCn1c(SCC(=O)N(C(C)C)C(C)C)nnc1-c1cc2ccccc2cc1O", "Potency": "inactive"}
{"compound": "CCOc1cccc(OCCNC2CCCC2)c1", "Potency": "inconclusive: 17.7 µM [inhibitor, partial curve]"}
{"compound": "CCOC(=O)c1cccc(NC(=S)NCc2ccc(C)cc2)c1", "Potency": "inactive"}
{"compound": "Cc1cc2c(c(=O)o1)C(c1ccc([N+](=O)[O-])o1)C(C#N)=C(N)O2", "note": "(centres undefined)", "Potency": "inconclusive: 4.46 µM [inhibitor, partial curve]"}
{"compound": "Cc1ccc(-c2nc3ccccc3c(=O)n2CCCN2CCOCC2)cc1", "Potency": "inactive"}
{"compound": "Cc1ccc(-n2[nH]c(C)c(C=Nc3ccc(Br)cn3)c2=O)cc1", "Potency": "inactive"}
{"compound": "COc1ccc(/C=C2/SC(=S)N(NS(=O)(=O)c3ccccc3)C2=O)cc1", "Potency": "inconclusive: 20 µM [inhibitor, single point]"}
{"compound": "O=C(CCN1N=C(c2ccccc2)CCC1=O)NCC1COc2ccccc2O1", "note": "(centres undefined)", "Potency": "inactive"}
{"compound": "Cc1cc(/C=C(\\C#N)C(=O)NCCc2c[nH]c3ccccc23)c(C)n1C", "Potency": "inactive"}
{"compound": "CCOC(=O)Cc1csc(NC(=S)NC(=O)c2cccc([N+](=O)[O-])c2)n1", "Potency": "active: 4.46 µM"}
{"compound": "Cc1c(C)n(CC(O)CN2CCOCC2)c2ccccc12", "note": "(centres undefined)", "Potency": "inconclusive: 22.3 µM [inhibitor, partial curve]"}
{"compound": "O=C(CSc1ccccn1)Nc1cccc2ccccc12", "Potency": "inconclusive: 31.5 µM [inhibitor, single point]"}
{"compound": "CCOc1ccc(C2c3c(oc4cc(C)c(C)cc4c3=O)C(=O)N2CCCN(C)C)cc1OC", "note": "(centres undefined)", "Potency": "inactive"}
{"compound": "CN1C(=O)CC(Nc2cccc3cccc(N)c23)C1=O", "note": "(centres undefined)", "Potency": "inconclusive: 10 µM [inhibitor, partial curve]"}
{"compound": "CC(C)N(CCCNC(=O)c1ccc(CS(=O)(=O)c2c(Cl)cccc2Cl)o1)Cc1ccccc1", "Potency": "inactive"}
{"compound": "COCCNC(=S)N/N=C(\\C)CCc1ccc2c(c1)OCO2", "Potency": "inconclusive: 15.8 µM [inhibitor, partial curve]"}
{"compound": "COc1ccc(OC)c(C2CC(=O)N3CN(c4cccc(Cl)c4)CSC3=C2C#N)c1", "note": "(centres undefined)", "Potency": "active: 3.54 µM"}
{"compound": "COc1ccc(-c2cnnc(N/N=C/C(C)=C/c3ccccc3)n2)cc1", "Potency": "inactive"}
{"compound": "CCN(CC)CCCCn1c(-c2ccccc2)nc2c(NCc3ccccc3)nc(C)nc21", "Potency": "inactive"}
{"compound": "CCc1oc2ccccc2c1C(=O)c1cc(Br)c(O)c(Br)c1", "Potency": "inconclusive: 17.7 µM [activator, single point]"}
{"compound": "O=C(NC(=S)Nc1cccc2ncccc12)c1ccco1", "Potency": "inconclusive: 15.8 µM [inhibitor, single point]"}
{"compound": "COc1ccc(CN(CCN)C2CC(C)N(C)CC2C)cc1", "note": "(centres undefined)", "Potency": "inconclusive: 25.1 µM [inhibitor, partial curve]"}
{"compound": "O=C(CSc1nc(-c2ccccc2)cc(=O)[nH]1)Nc1ccc(Br)cc1", "Potency": "inconclusive: 4.47 µM [inhibitor, full curve, poor fit]"}
